Laboratory results reported in the BET-seq Pho4 binding data (Le et al. 2018).
Some of the results follow. The energies were worked out here from pooled read counts, against the library average; single values are noisy.

molecular target: T1, Pho4 (S. cerevisiae) (UniProt P07270); experiment: relative binding free energy (BET-seq); higher = weaker binding; settings: reference: library average
T1 sequence: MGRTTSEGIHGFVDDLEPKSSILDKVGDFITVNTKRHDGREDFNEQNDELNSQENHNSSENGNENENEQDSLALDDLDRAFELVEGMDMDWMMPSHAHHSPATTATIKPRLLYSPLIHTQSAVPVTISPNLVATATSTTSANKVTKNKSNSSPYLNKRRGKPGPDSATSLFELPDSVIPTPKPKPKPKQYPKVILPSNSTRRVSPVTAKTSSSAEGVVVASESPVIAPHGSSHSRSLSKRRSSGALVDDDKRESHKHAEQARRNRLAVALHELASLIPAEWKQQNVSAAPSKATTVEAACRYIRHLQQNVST

Sequence | relative binding free energy [kcal/mol]
GGTAGCACGTGGGTAT | -0.08
GGTAACACGTGATGGG | 0.1
GGGATCACGTGCAGGG | 0.24
GGTGTCACGTGATGTC | 0.18
CGTAACACGTGTGTAT | 0.03
AAGCGCACGTGGAGGG | -0.05
GAGGACACGTGTTGCT | 0.13
GTAGTCACGTGCGTGG | 0.05
GGGGCCACGTGGGTGC | -0.15
TCTATCACGTGGTATA | 0.14
AATGGCACGTGGTCAT | -0.19
TAAGGCACGTGTCTGG | -0.06
AGGGCCACGTGCAGGA | -0.05
ATGTTCACGTGGTTCA | 0.17
GTTAACACGTGTTTTA | 0.01
AGTTGCACGTGCGAAT | 0.11
CAGATCACGTGGTTGT | -0.02
TGGTCCACGTGAGAGT | 0.22
GTTGACACGTGCTGTG | -0.01
ATTGTCACGTGGGAGA | 0.02
TATTTCACGTGATCGG | 0.07
AGTAGCACGTGAGTTC | 0.38
GCTTTCACGTGATGTG | 0.24
CATATCACGTGTGAGG | 0.29
GCGGACACGTGTGGTG | 0.2
AATCGCACGTGGAGGG | -0.09

Sequence | relative binding free energy [kcal/mol]
AGGTGCACGTGGGCAT | -0.22
AAGAGCACGTGGGGTT | -0.16
ATGCGCACGTGGGTGT | -0.31
ATTCACACGTGGTTTA | 0.03
AATGTCACGTGGTGTG | 0.09
GTTGACACGTGTGTAA | 0.16
AGGAGCACGTGGCGGA | -0.12
GTAGTCACGTGCGTTT | 0.11
GTATACACGTGTTGTT | 0.08
CTAGACACGTGGGGTG | -0.08
TGTATCACGTGGCGAG | 0.03
TTGTGCACGTGACATT | 0.16
GGGACCACGTGTGGTG | 0.03
TTAAACACGTGTATTA | -0.06
CGAGTCACGTGGTTGT | 0.07
AGCGTCACGTGGTCTG | 0.1
CGAGTCACGTGAAGTG | 0.26
AAATTCACGTGTGGCG | 0.34
TGAGGCACGTGCGGAA | -0.11
AGTGCCACGTGGGAGC | -0.08
AGAGGCACGTGAGGCG | 0.01
TCGTGCACGTGGATGT | 0.03
TTCTGCACGTGGTGGT | -0.04
AGGACCACGTGGGTTA | -0.16
AGTGTCACGTGTGAGA | 0.16
GCTGTCACGTGAGGAT | 0.25

Sequence | relative binding free energy [kcal/mol]
ATGTTCACGTGCCGTG | 0.17
AGATGCACGTGCGGGC | -0.03
TCGGGCACGTGTTCTT | 0.06
TGATACACGTGAGGGA | 0.28
TGGCTCACGTGATTCG | 0.26
AGGTACACGTGGTTGT | -0.05
TTGGACACGTGTGGTA | 0.05
TGAGTCACGTGGTGGT | 0.07
TAGGCCACGTGGTTGT | -0.05
TAGGGCACGTGTAAAA | 0.07
AATTACACGTGGATTT | 0.16
GTACTCACGTGGAGTG | 0.22
TGATCCACGTGGGGAG | 0.03
TATTACACGTGTGGAA | 0.19
GGGATCACGTGGGTAG | 0.17
CTTTTCACGTGCATGT | 0.24
ATTGTCACGTGATAAG | 0.33
CAGGTCACGTGATGGG | 0.24
GTAGACACGTGCTGGG | -0.09
TAACGCACGTGGGGAA | -0.11
AAGGTCACGTGGGTAT | 0.02
AGGGGCACGTGTATGA | -0.16
GAATTCACGTGTAGTA | 0.33
GCAGGCACGTGGGTAT | -0.15
GATGGCACGTGACATG | 0.09
AATGTCACGTGGAAGT | -0.07

Sequence | relative binding free energy [kcal/mol]
TGAGCCACGTGGGGTA | -0.25
TGTTGCACGTGATAGA | 0.08
TTGTGCACGTGCCGTT | 0.05
TGTTACACGTGCGTGG | 0.07
GACGGCACGTGAGAGT | 0.18
TAGCACACGTGGTGGT | -0.1
TGGCGCACGTGCGTGG | -0.18
GGTTTCACGTGTGTTT | 0.4
AAGTACACGTGTGGTT | 0.06
GATCTCACGTGGGTGA | 0.24
CGGTACACGTGGGTTT | 0.01
TTTATCACGTGGGTTT | 0.12
ATTAGCACGTGTGAAG | 0.03
AAGTGCACGTGAAGGA | 0.28
AAGTTCACGTGGTAGG | 0.27
AGGCTCACGTGTTTGT | 0.12
AAGTTCACGTGAATGC | 0.56
TAGTACACGTGTTATG | 0.1
TGGTGCACGTGCCAGG | -0.12
AACGTCACGTGGTGAG | 0.03
TTAGTCACGTGGCATA | 0.01
GACGGCACGTGATGTG | 0.12
TGATTCACGTGTCTGT | 0.29
CGTTTCACGTGTGCTT | 0.42
CTTGACACGTGGGGTT | -0.14
CGTTTCACGTGGTGTC | 0.24

Sequence | relative binding free energy [kcal/mol]
TTTTTCACGTGGGTAT | 0.29
AGGTGCACGTGTGCTA | -0.08
GGTTCCACGTGGGAAG | 0.21
CATTGCACGTGTGCGG | 0.03
GCAGGCACGTGGTGGC | -0.17
CTTGGCACGTGAGATG | -0.01
ATAATCACGTGTGGAG | 0.11
CGTGACACGTGAGGGT | 0.07
GGGGGCACGTGCAACG | 0.02
TTTTTCACGTGAATTG | 0.5
GAGGGCACGTGGGTGC | -0.11
AGTGTCACGTGAGTTA | 0.13
GAATTCACGTGATTGT | 0.46
ACTGACACGTGATGGT | 0.14
GTGACCACGTGGGTAG | -0.25
TGGAACACGTGTGTAG | 0.09
AGTGCCACGTGACGGG | -0.03
TTGAGCACGTGTGACG | -0.03
GTTAACACGTGTGTTT | 0.13
GTATACACGTGCTTGT | 0.04
TTCATCACGTGGGTGG | 0.03
TGTGTCACGTGTTAAT | 0.18
TGGCTCACGTGCTAGT | 0.32
ATGGGCACGTGACGGG | -0.02
GGGTGCACGTGAACTT | 0.13
TAGTGCACGTGTGCAT | -0.13

Sequence | relative binding free energy [kcal/mol]
TTGGTCACGTGAGATA | 0.27
TCGTGCACGTGTTGGG | -0.07
ATCTGCACGTGTAGTA | 0.05
GGCTCCACGTGTGGTG | 0.14
TATGTCACGTGAAGTC | 0.33
TTCTTCACGTGTGTTC | 0.24
TTGCTCACGTGGTCTT | -0.02
GGCGGCACGTGCGCGG | -0.25
GGAAGCACGTGAGTGA | 0.3
GTAGGCACGTGTTGGG | 0
GTGTGCACGTGAATAT | 0.22
GGGGTCACGTGTCATA | 0.14
TATAGCACGTGGTAGG | -0.07
ATGAACACGTGGTTAA | -0.01
TTGCTCACGTGTGTCT | 0.29
TATGTCACGTGTGCAT | -0.03
TAATACACGTGTGCGT | 0.08
TTTGACACGTGTAAGA | 0.21
TGGTTCACGTGATCTA | 0.29
GATTGCACGTGAAGGG | 0.4
TAGGGCACGTGTGTGC | -0.05
TCGGGCACGTGCGTGT | -0.3
TAATACACGTGTGGTA | -0.03
CTGGGCACGTGGTGTT | -0.17
TGTCTCACGTGTGATT | 0.3
TTCATCACGTGCATGG | 0.3

Sequence | relative binding free energy [kcal/mol]
AATATCACGTGGTAAT | 0.13
TGGGTCACGTGTCGCT | 0.04
GGGGGCACGTGCAATT | -0.02
TGAGTCACGTGAACGT | 0.24
TGGATCACGTGTGTAA | 0.12
CTATTCACGTGAATAT | 0.58
GTGTACACGTGTCGAG | 0.15
AAAGACACGTGCTGGG | 0.02
TTCTTCACGTGCGTGA | 0.25
GTGGTCACGTGGGACC | 0.14
GGATGCACGTGAGTGG | 0.12
GCAGGCACGTGTCGGG | 0.01
GAGTGCACGTGAGTGC | 0.3
CGTGGCACGTGGGGTC | -0.27
AGGGGCACGTGAGGAC | 0.1
CGGGGCACGTGCGTGC | -0.28
GATATCACGTGTATGA | 0.15
TGCGACACGTGAGGTG | 0.21
TAGTGCACGTGGTTAT | 0.01
TTGGTCACGTGGATTT | 0.19
TCTGACACGTGTAGTG | 0.1
AGAGTCACGTGGCAGT | -0.07
AGAATCACGTGTGAGG | 0.33
CATTGCACGTGTCGGG | 0.05
ATAGACACGTGGGAAG | -0.02
AGCGTCACGTGGGTTA | -0.13

Sequence | relative binding free energy [kcal/mol]
TCGTTCACGTGTGGTT | 0.33
GATGTCACGTGATCGT | 0.19
GGTCGCACGTGTGTTG | 0.05
CTGTTCACGTGTTGTG | 0.18
ATGATCACGTGAAGTT | 0.25
TGAATCACGTGGGTGC | 0.13
GGGTACACGTGGGGGT | 0.03
ATGGGCACGTGGCTTC | -0.12
TGAGGCACGTGATGTT | -0.03
TGGGTCACGTGGCAGA | 0.05
TGGTTCACGTGGGCAA | 0.14
GAAGGCACGTGGGAGT | -0.11
GTGTTCACGTGGTAGT | 0.23
AGGGTCACGTGAGGTG | 0.28
TGATACACGTGTTGTA | 0.08
TCGTACACGTGGAATT | 0.26
TCGTACACGTGATTGT | 0.27
ATGCGCACGTGTTATT | -0.03
ATTTTCACGTGAACAG | 0.41
TATAGCACGTGGCCGG | -0.24
TAATTCACGTGATGTA | 0.21
GGAATCACGTGTGGTG | 0.05
GATTGCACGTGGAGCT | 0.1
AGGTACACGTGGCATG | -0.08
GTAGGCACGTGCTGGA | -0.14
CGTTTCACGTGAGTCT | 0.37

Sequence | relative binding free energy [kcal/mol]
GTTCTCACGTGTGTGA | 0.21
GTGTCCACGTGGCTGT | 0.02
TTTGGCACGTGTATCC | 0.04
GACGGCACGTGCAGGT | 0
TAAGACACGTGTGTTG | 0.14
TTGGTCACGTGCCTAG | 0.08
ACAAGCACGTGTGTGT | -0.1
GATCTCACGTGTGGAG | 0.27
TGGGGCACGTGCTCTT | -0.12
GCTTTCACGTGTTTAG | 0.42
AGGGGCACGTGCTGTT | -0.28
GAGTTCACGTGCGGAG | 0.29
TATGCCACGTGGTTGA | -0.19
GAGGACACGTGTGCGT | 0.15
GGATACACGTGGTAGC | 0.1
GGGATCACGTGGGTCT | 0.04
CTATTCACGTGGGGAG | 0.19
TTGAACACGTGACTGG | 0.35
GTGTGCACGTGGATTC | 0.03
TTAGTCACGTGGGGGA | -0.01
ATAGACACGTGTTAAT | 0.11
TGAAGCACGTGAATGG | 0.3
